Laboratory results published in PubChem BioAssay AID1347417 (National Center for Advancing Translational Sciences (NCATS), 2020).
About 5,300 (4.4%) of roughly 120,000 compounds were called active. The inconclusive results got no clear call from the source; some entries with a clear call stand among them for comparison. Calls follow the shape of the dose curve; as a rule, active = well fitted inhibition curve with a large enough effect; inconclusive = small, poorly fitted or top-dose-only effect; inactive = no such curve, though single readings can be large or run the other way. Potencies beside an inconclusive call are fits to weak or partial responses and may not hold up.

experiment: qHTS Primary assay for Inhibitors of Plasmodium falciparum Dd2 growth in vitro; also: nearly all actives have a fitted effect of over 65% in size; settings: P. falciparum Dd2 growth, SYBR Green, 72 h; series mostly up to 28.9 µM
Text: Malaria, a parasitic disease spread to humans through the bite of a Plasmodium infected Anopheles mosquito, continues to be a global health burden affecting millions of people, with an estimated 228 million cases and 405,000 deaths in 2018. Concerns about safety and limitations of current antimalarial treatments strongly emphasize the need to develop new therapeutic options. The scarce number of chemotypes and validated drug targets with efficacy against the liver stage, have hindered development of new antimalarials. To address this, a chemoprophylactic drug discovery effort was conducted through a combined phenotypic high-throughput asexual blood stage and liver stage screen, providing a robust foundation to identify liver-stage active lead chemotypes. Compounds were initially screened against Plasmodium falciparum Dd2 strain parasites using a in vitro SYBRGreen-1 based 72 hr proliferation assay to identify novel chemotypes to advance to liver stage assays. NIH/NCATS Early Translation Branch Assay Submitter (PI): Anton Simeonov Ph.D.
Malaria-vivax Assay Protocol: PROTOCOL TABLE (as described by Inglese et al., 2007) SEQUENCE No. (e.g., 1, 2, 3, etc.); […] (e.g., Cells, Incubation, Reagent, etc.); VALUE; DESCRIPTION SEQUENCE, Parameter, Description 1; Reagent; 3 uL complete malaria growth medium, 1536 TC treated Black clear bottom plate 2; Controls; 23 nL positive control artesunate (300 nM final) to column 1; Neutral control DMSO to columns 2-4 3; Compound; 23 nL of compounds in dose response concentration (29 uM to 0.5 nM final) 4; Reagent; 5 uL malaria infected red blood cells (2.5% hematocrit final, 0.3% parasitemia 5; Time; 72 hours at 37C (5% O2, 5% CO2, 90% N2; 95% Rh) 6; Reagent; 2 uL lysis buffer/SYBRGreen-1, 25 sec shake immediately following dispense 7; Time; ~16 hours at 37C (5% O2, 5% CO2, 90% N2; 95% Rh) 8; Detector; EnVision (PerkinElmer) bottom read at 485/14nm excitation and 535/25 nm emission NOTES (numbers refer to sequence above): 1; Complete Malaria Growth Media: 1X RPMI-1640 w/L-glutamine, 5.5g/L Albumax II, 367 uM Hypoxanthine, 25 mM HEPES, 0.25% Sodium Bicarbonate, 35 uM Gentamicin sulfate 2; Controls were added using the Kalypsis Pintool (Wako USA) equipped with 1536 pinhead 3; Compounds were added in a 7-point, titration with a high final concentration of 29 uM by Pintool from seven inter-plate titrations of library plates and two DMSO control plates at the beginning and end (see Yasgar et al., 2008). 4; Red blood cells infected with Plasmodium falciparum Dd2 parasites were used. 6; Lysis buffer: 20 mM Tris-HCl, 10 mM EDTA, 0.16% Saponin, 1.6% Triton-X, 10X SYBR Green. REFERENCE: Inglese J, Shamu CE, Guy RK. 2007. Reporting data from high-throughput screening of small-molecule libraries. Nat Chem Biol. doi:10.1038/nchembio0807-438 Yasgar A, Shinn P, Jadhav A, Auld D, Michael S, Zheng W, Austin CP, Inglese J, Simeonov A. 2008. Compound Management for Quantitative High-Throughput Screening. J Lab Autom 13:79-89. doi:10.1016/j.jala.2007.12.004
Potency is read from the fitted curve at half-maximal effect; tags tell the direction and shape of the fitted curve.

Row | SMILES | Potency
1 | O=C(Nc1ccccc1)Nc1ccc([C@@H](O)[C@H]2COCC(=O)N2Cc2ccc(F)cc2)cc1 | inactive
2 | CC(C)C(=O)N1Cc2ccccc2CC2(CCN(Cc3ccc(O)cc3)CC2)C1 | inconclusive: 8.91 µM [inhibitor, partial curve]
3 | CCCC(C)c1c(-c2ccccc2)ncn1CCNC(C)=O (stereo not drawn) | inconclusive: 11.2 µM [inhibitor, single point]
4 | C[S+](=O)([O-])Nc1cccc(-c2cc(-c3cccnc3)c3cncn3c2)c1 | inconclusive: 31.6 µM [inhibitor, single point]
5 | COc1ccc(C(=O)N2CCc3nc(C4CC4)nc(-c4ccc(OC)cc4)c3CC2)cc1 | inconclusive: 12.6 µM [inhibitor, partial curve, poor fit]
6 | Cc1cc(C)cc(C(=O)Nc2c3c(nn2-c2ccccc2C)CS(=O)(=O)C3)c1 | inconclusive: 11.2 µM [inhibitor, single point]
7 | Cc1nn(-c2ccccc2[N+](=O)[O-])c(C)c1[C@@H]1C=C[C@@H](NS(=O)(=O)c2ccccc2)C1 | inactive
8 | CCOC(=O)C1CC1CN1CCCC12Cc1ccccc1CNC2=O (stereo not drawn) | inconclusive: 10 µM [inhibitor, single point]
9 | COc1ccc(NC(=O)N2CCc3c(C(=O)NCCN4CCCCCC4)cccc32)cc1 | active: 2.82 µM
10 | Cc1cc(C(=O)N2CCCN(S(=O)(=O)c3ccccc3)CCC(=O)NCC2)nn1C | inactive
11 | CCOc1ccccc1CNC(=O)c1cccc(NC(=O)c2nsc3ccccc23)c1 | inconclusive: 11.2 µM [inhibitor, single point]
12 | CCOC(=O)c1c(NC(C)=O)c2c3c(sc2n1Cc1cccc(Cl)c1)CCCC3 | inconclusive: 17.8 µM [inhibitor, single point]
13 | CCc1noc(-c2cn(C3CCN(C(=O)COc4cccc(C)c4)CC3)nn2)n1 | inconclusive: 0.316 µM [inhibitor, partial curve, poor fit]
14 | COc1cccc(CN2C[C@@H](F)[C@@H](OCc3nc4ncccc4[nH]3)C2)c1 | inactive
15 | CC1(C)[C@H]2CC[C@@H](CNC(=O)c3cccc(Cl)c3)[C@@H]1C2 | inconclusive: 31.6 µM [inhibitor, single point]
16 | COc1ccc(NCc2cccn2-c2nnc(N3CCOCC3)s2)c(OC)c1 | inconclusive: 14.1 µM [inhibitor, single point]
17 | COc1ccccc1CNC(=O)C1CC(=O)N(c2n[nH]c3ccccc23)C1 (stereo not drawn) | inactive
18 | CC1CCN(C(=O)c2ccccc2OCC2CCCN(Cc3cccnc3)C2)CC1 (stereo not drawn) | inconclusive: 10 µM [inhibitor, single point]
19 | c1ccc(-c2[nH]ncc2CN2CCCC(N3CCN(c4ccccc4)CC3)C2)cc1 (stereo not drawn) | inactive
20 | CC(C)NC(=O)N1CC2ON=C(C(=O)N3CCOCC3)C2C1 (stereo not drawn) | inactive
21 | COCc1cc(=O)n(CC(=O)Nc2cc(Cl)ccc2OC)c(N2CCOCC2)n1 | inconclusive: 3.55 µM [inhibitor, single point]
22 | C[C@@H](NC(=O)c1ccccc1)c1c(-c2ccc(Cl)cc2)noc1C(=O)O | inactive

Row | SMILES | Potency
23 | CSc1ccccc1NC(=O)CCS(=O)(=O)c1nc(-c2cccs2)cc(C(F)(F)F)n1 | inactive
24 | COc1cccc(CNC(=O)c2ccc(Cn3ccn4nc5c(c4c3=O)CCCC5)cc2)c1 | inconclusive: 5.01 µM [inhibitor, partial curve, poor fit]
25 | O=C1C(c2ccc(C(F)(F)F)cc2)=C(Nc2ccc(Cl)cc2)c2ccccc21 | active: 0.891 µM
26 | O=C(CC[C@@H]1CNC(=O)[C@@H]2C[C@H](NC(=O)Nc3ccccc3)CN12)Nc1ccccc1 | inconclusive: 3.55 µM [inhibitor, partial curve]
27 | CCN(C(=O)Cn1nc(Cc2cccnc2)c2ccccc2c1=O)c1cc(C)ccc1C | inconclusive: 17.8 µM [inhibitor, single point]
28 | COc1ccc(C(=O)N2CCC(C(=O)Nc3ccc(OC)cc3OC)CC2)cc1 | inactive
29 | Cn1nccc1CCC(=O)N[C@@H]1CCOC[C@H]1Oc1ccccn1 | inactive
30 | Cc1cc(F)ccc1NC(=O)C1CN(S(=O)(=O)C2CC2)CC12CCCCC2 (stereo not drawn) | inconclusive: 4.47 µM [inhibitor, partial curve]
31 | COc1cc(-c2nnc(SCC(=O)N3CCCc4ccccc43)o2)cc(OC)c1OC | inconclusive: 11.2 µM [inhibitor, single point]
32 | O=C(NCc1ccncc1)c1nc2c(o1)CCN(Cc1ccc3[nH]ccc3c1)CC2 | inactive
33 | O=C1Nc2ccccc2OCC12CCN(CC1CCCC1)CC2 | inconclusive: 8.91 µM [inhibitor, partial curve, poor fit]
34 | CCOc1ccccc1NC(=O)C1CCCN(S(=O)(=O)c2ccc3c(c2)CCCN3C(C)=O)C1 (stereo not drawn) | inconclusive: 11.2 µM [inhibitor, partial curve]
35 | COc1ccc(OC)c(CCNC(=O)C(C)n2nc(C)c3c(C)n(-c4ccc(C)cc4)nc3c2=O)c1 (stereo not drawn) | inconclusive: 14.1 µM [inhibitor, partial curve, poor fit]
36 | CCn1cc(CN(C)CC2(O)CCCN(Cc3ccc(C(C)C)cc3)C2=O)cn1 (stereo not drawn) | inconclusive: 20 µM [inhibitor, single point]
37 | Cc1ncccc1C(=O)N1CCCN(Cc2ccncc2)C(c2ccccc2)CC(=O)NCC1 (stereo not drawn) | active: 11.2 µM
38 | Cn1nnnc1C1CCCN(C(=O)NC2CCCCC2)C1 (stereo not drawn) | inactive
39 | CC(C)CC(=O)N1CCC2(CC1)CC(N(C(=O)c1ccccc1)C1CC1)CCO2 (stereo not drawn) | inactive
40 | N#Cc1ccccc1NC(=O)C(=O)NCC(c1cccnc1)N1CCc2ccccc2C1 (stereo not drawn) | inconclusive: 15.8 µM [inhibitor, single point]
41 | O=C(NC1CCCN(c2cc(-c3ccc(F)cc3)[nH]n2)C1)c1ccc(F)c(F)c1 (stereo not drawn) | inconclusive: 1.41 µM [inhibitor, partial curve, poor fit]
42 | CN1C(=O)CCC2(CNC(=O)c3nccn3C)CCC=C12 (stereo not drawn) | inactive
43 | COc1ccc(NC(=O)c2nnn3c2CN(Cc2cccc(Cl)c2)C(=O)CC3)c(C)c1 | inconclusive: 0.891 µM [inhibitor, full curve, poor fit]
